The record followed here is PubChem BioAssay AID1745853 (National Center for Advancing Translational Sciences (NCATS), 2022).

Holding throughout (test): Primary Screen for Target Class Profiling of Small Molecule Inhibitors of Methyltransferases
The target of test [1] is Glycine N-methyltransferase (Homo sapiens) (UniProt Q14749). The note with it: purified enzyme, MTase-Glo SAH luminescence; measured here: GNMT inhibition; at 40 µM; stronger effect = lower value. The gist of the method: (§1)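 Each enzyme was assayed with SAM and its substrate. SAH formation detected by MTase-Glo luminescence; single-point 40 uM screen[…].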
For test [2], the target named is Guanidinoacetate N-methyltransferase (Homo sapiens) (UniProt Q14353). The note with it: purified enzyme, MTase-Glo SAH luminescence; measured here: GAMT inhibition; at 40 µM; stronger effect = lower value. The gist of the method:
as §1

Test [3] has as its target Histamine N-methyltransferase (Homo sapiens) (UniProt P50135). The note with it: purified enzyme, MTase-Glo SAH luminescence; measured here: HNMT inhibition; at 40 µM; stronger effect = lower value. The gist of the method: as §1
For test [4], the target named is Nicotinamide N-methyltransferase (Homo sapiens) (UniProt P40261). The note with it: purified enzyme, MTase-Glo SAH luminescence; measured here: NNMT inhibition; at 40 µM; stronger effect = lower value. The gist of the method:
as §1

Test [5] has as its target Phenylethanolamine N-methyltransferase (Homo sapiens) (UniProt P11086). As to conditions: purified enzyme, MTase-Glo SAH luminescence; measured here: PNMT inhibition; at 40 µM; stronger effect = lower value. The gist of the method:
as §1

The list shows a part of the results. These are further read-outs of the screen, such as a control signal, another cell line or another target. No call is given for them.
% is set by controls: 0 for no effect and ±100 for the full control effect.

As for `Cc1ccc(CNC(=O)C2(C)Cn3nc(C(=O)N4CCOCC4)cc3C(=O)N2C)cc1` (stereo not drawn), the activity change, negative = inhibition in test [1] is 4.56%; in test [2], 3.42%; in test [3], 6.26%; in test [4] it was 0.506%; in test [5] it was 1.63%.

Take `Cc1cccc(NC(=O)CN(C)S(=O)(=O)c2ccc3[nH]c4c(c3c2)CCCC4)c1`: the activity change, negative = inhibition is 2.18% in test [1]; 0% in test [2]; -0.956% in test [3]; -2.84% in test [4]; 0.537% in test [5].

As to `N#Cc1cccc(C(=O)N2CCNc3cnc(Nc4cccc(F)c4)nc3C2)c1`, the activity change, negative = inhibition in test [1] was -11.2%; in test [2], -7.11%; in test [3], -8.33%; in test [4], -19.5%; in test [5] it was -11.2%.

Turning to `CC[N+](CC)(CC)CC(=O)Nc1c(C)cccc1C`, the activity change, negative = inhibition in test [1] was 2.81%; in test [2], 11.6%; in test [3], 6.47%; in test [4], -1.02%; in test [5], 11.4%.

On to `Cc1ccc(-c2n[nH]n3c2nc(=O)c2ccc(C(=O)NCc4ccc(Cl)cc4)cc23)cc1`, for which the activity change, negative = inhibition was -3.41% in test [1]; 0% in test [2]; -0.181% in test [3]; 0.632% in test [4]; -1.4% in test [5].

For `O=C(Cc1c(F)cccc1F)Nc1cc(OCc2ccc(Cl)cc2)ccn1`, the activity change, negative = inhibition was 3.73% in test [1]; -2.18% in test [2]; -3.49% in test [3]; -17.4% in test [4]; 3.54% in test [5].

Take `CN1C(=O)c2cc(C(=O)Nc3cccc(F)c3)nn2CC1(C)C(=O)NC1CCCCCC1` (stereo not drawn): the activity change, negative = inhibition is -2.99% in test [1]; 3.63% in test [2]; 5% in test [3]; -1.36% in test [4]; 0.388% in test [5].

As for `CC(=O)Nc1ccc(C(=O)N2CCC3(CC2)CN(C)CCN3C)c(C)c1`, the activity change, negative = inhibition in test [1] was 2.64%; in test [2] it was 1.8%; in test [3], 0.683%; in test [4], -5.32%; in test [5], 5.22%.

In the case of `Cc1noc(C)c1S(=O)(=O)N1C[C@@H](C(=O)O)[C@H](c2ccccn2)C1`, the activity change, negative = inhibition in test [1] was -4.33%; in test [2] it was -6.85%; in test [3], -1.75%; in test [4], -6.63%; in test [5], 3.03%.

Take `CCOC(=O)c1cc2n(n1)CC(C)(C(=O)NCc1ccc(C)cc1)N(CCCc1ccccc1)C2=O` (stereo not drawn): the activity change, negative = inhibition in test [1] is 7.86%; in test [2], 2.33%; in test [3], 10.4%; in test [4] it was 2.91%; in test [5], 3.77%.

For `CCCn1c(=O)c2ccc(Cl)cc2n2c(=O)n(Cc3cccc(C)c3)nc12`, the activity change, negative = inhibition in test [1] is -2.23%; in test [2] it was 2.44%; in test [3], 3.12%; in test [4], -1.78%; in test [5], 0.977%.

On to `C[C@H]1[C@H](C)CC[C@]2(C(=O)O)CC[C@]3(C)C(=CC[C@@H]4[C@@]5(C)C[C@@H](O)[C@H](O)[C@@](C)(CO)[C@@H]5CC[C@]43C)[C@H]12`, for which the activity change, negative = inhibition in test [1] is -1.39%; in test [2], 3.65%; in test [3], 8.68%; in test [4], -6.51%; in test [5], 4.41%.

Take `CC(CCc1ccccn1)(CCc1ccccn1)C(=O)c1ccccc1`: the activity change, negative = inhibition in test [2] is 7.43%; in test [4], -6.04%; in test [5], -0.114%.

In the case of `COC(=O)c1cc2n(n1)CC(C)(C(=O)NC1CCCCCC1)N(Cc1ccccc1OC)C2=O` (stereo not drawn), the activity change, negative = inhibition in test [1] was -6.97%; in test [2] it was -1.31%; in test [3], -9.35%; in test [4], -15.2%; in test [5], -2.64%.

For the compound `Cc1ccc(N2C(=O)c3ccc(-c4ccco4)n3CC2(C)C(=O)NCc2ccc(Cl)cc2)c(C)c1` (stereo not drawn), the activity change, negative = inhibition in test [1] was -1.75%; in test [2] it was 2.35%; in test [3], 1.22%; in test [4], 4.3%; in test [5] it was -1.61%.

Turning to `CCCn1c(=O)c2ccc(C(=O)NC(C)C)cc2n2c(=O)n(CC(=O)Nc3cccc(C)c3)nc12`, the activity change, negative = inhibition in test [1] was found to be 5.63%; in test [2], 3.71%; in test [3] it was 1.59%; in test [4], 0.67%; in test [5] it was 2.48%.

In the case of `COc1cccc(CCC(=O)N2CCC3(CC2)NC(=O)N(c2cccc(F)c2)N3)c1`, the activity change, negative = inhibition was -4.37% in test [1]; -2.18% in test [2]; -1.29% in test [3]; -5.56% in test [4]; 2.7% in test [5].

Consider `CC1CCN(S(=O)(=O)c2ccc3c(ccn3CCC(=O)NCCc3cccs3)c2)CC1`, for which the activity change, negative = inhibition in test [1] is -2.26%; in test [2], -0.884%; in test [3], -2.69%; in test [4] it was -7.73%; in test [5] it was -5.36%.

On to `CC1CCC/C=C/C(=O)c2c(O)cc(O)cc2CC(=O)O1` (stereo not drawn), for which the activity change, negative = inhibition is -1.44% in test [1]; -5.43% in test [2]; 6.19% in test [3]; -9.72% in test [4]; -5.57% in test [5].

As to `Cc1ccc(NC(=O)Cn2nc3n(C)c(=O)c4ccc(C(=O)NC5CCCC5)cc4n3c2=O)cc1F`, the activity change, negative = inhibition in test [1] was -0.099%; in test [2], 0%; in test [3], 0.238%; in test [4] it was 0.875%; in test [5], 0.275%.

Take `COc1ccc(CN2CCn3c(nnc3C3CCCNC3)C2)cc1` (stereo not drawn): the activity change, negative = inhibition in test [1] was -7.54%; in test [2], -8.75%; in test [3] it was -4.61%; in test [4], -13.6%; in test [5], -8.27%.

On to `CCC(C)NC(=O)c1ccc2c(=O)nc3c(-c4cccc(F)c4)n[nH]n3c2c1` (stereo not drawn), for which the activity change, negative = inhibition was found to be 1.33% in test [1]; 1.91% in test [2]; 2.91% in test [3]; 2.89% in test [4]; 0.008% in test [5].

Turning to `CC1(C(=O)NCc2ccccc2)Cn2c(cc3ccccc32)C(=O)N1Cc1ccccc1Cl` (stereo not drawn), the activity change, negative = inhibition was 2.92% in test [1]; 0.601% in test [2]; 3.6% in test [3]; 1.81% in test [4]; -3.23% in test [5].

Turning to `c1ccc(C2(c3ccccc3)CCCN(Cc3cscn3)C2)cc1`, the activity change, negative = inhibition in test [1] is -5.46%; in test [2], -5.59%; in test [3] it was -4.1%; in test [4], -8.89%; in test [5], -0.834%.

For the compound `CC(C)OCCCn1c(=O)c2ccccc2n2c(=O)n(Cc3cccc(Cl)c3)nc12`, the activity change, negative = inhibition is -1.67% in test [1]; 0% in test [2]; 8.34% in test [3]; -26.9% in test [4]; 0.533% in test [5].

`O=C1CN(Cc2ccc(Br)cc2)S(=O)(=O)c2ccccc2N1Cc1ccccc1F`: the activity change, negative = inhibition in test [1] is 6.2%; in test [2] it was 5.9%; in test [3], 0.861%; in test [4], 0.62%; in test [5], -0.33%.

Take `COc1ccccc1CCNC(=O)Cn1ccc2cc(S(=O)(=O)N3CCCCC3)ccc21`: the activity change, negative = inhibition in test [1] came to 5.3%; in test [2], 0%; in test [3] it was 3.33%; in test [4], 8.03%; in test [5], 5.42%.

In the case of `O=S(=O)(NCCn1c(-c2ccncc2)nc2ccccc21)c1ccc(Cl)cc1`, the activity change, negative = inhibition is -5.23% in test [1]; 0% in test [2]; 3.2% in test [3]; -1.09% in test [4]; 4.4% in test [5].

Turning to `CCCc1nc(CC)n2cc[nH]c(=O)c12`, the activity change, negative = inhibition was -4.09% in test [1]; -2.44% in test [2]; -3.11% in test [3]; -11.1% in test [4]; 13.1% in test [5].

Turning to `CCn1ccc(C(=O)N2C[C@@H]3CCCN4CCC[C@@H]([C@H]34)[C@H]2CCCC(=O)NCC2CC2)n1`, the activity change, negative = inhibition in test [1] was -7.69%; in test [2] it was -13.2%; in test [3], -4.77%; in test [4] it was -19%; in test [5], -11.1%.
